The values below come from patent publication US20070232572A1, “Chemical derivatives as antitelomerase agents which bind specifically to the G-quadruplex DNA structures and their application as a specific anticancer agent” (priority 2003, published 2007).

Assay [1] deals with oligonucleotide capable of forming a G-quadruplex structure (G-rich strand, repetitive units of human telomeric DNA). Nature of the assay: Test of affinity No. 1 (alpha screen): inhibition of pairing of a G-quadruplex-forming oligonucleotide with its complementary strand, luminescence. As to conditions: 50 mM TRIS-HCl pH 7.4, 100 mM KCl, 0.1% BSA; telomeric strand vs complementary strand; read-out: Affinity/selectivity G4 Test 1 (alpha screen) Affinity IC50. Format: binding. From the text:
The principle of this test uses the activation of “acceptor” beads by an oxygen singlet emitted by “donor” beads excited by laser when the “acceptor” and “donor” beads are in proximity. This test was developed by Packard Bioscience under the name Amplified Luminescent Proximity Homogeneous Assay or ALPHA screen.
The “donor” beads are conjugated with streptavidin and the acceptor beads with an anti-digoxigenin antibody (catalog reference 6760604). A DNA strand, in this case the telomeric strand, is coupled at its 5′ end to biotin so as to be able to bind to the “donor” beads, while the complementary strand is coupled to digoxigenin so as to be able to bind to the “acceptor” beads. During the pairing of the telomeric strand with its complementary strand, the beads are placed in proximity and a luminescence signal is then emitted at a wavelength of 520-620 nm.
The oligonucleotides used in the experiments were synthesized by Perkin Elmer Life Sciences (Finland). […] The complementary strand has the sequence GGT-TTA-AAA-AAT-TTG-CCC-TAA-CCC-TAA-CCC-TAA-CCC-T. The biotin or the digoxigenin are added to the 5′ end of the oligonucleotides.
The experiments are carried out in 50 mM TRIS-HCl buffer pH 7.4 containing 100 mM KCl and 0.1% BSA. […]
The experiments are carried out in 96-well plates (½ wells). […] The plates are incubated at room temperature for 2 hours before reading. […]

Assay [2] concerns any oligonucleotide (non-G-quadruplex control sequence) with its complementary strand. Nature of the assay: Test of selectivity No. 1 (alpha screen): inhibition of pairing of any oligonucleotide with its complementary strand, luminescence. As to conditions: control oligonucleotide pairing versus G4 oligonucleotide pairing. It counts as binding. From the text:
The test used is the same as that described above. Only the oligonucleotides are different, the telomeric strand being replaced by an oligonucleotide having the following sequence: G-GTT-TAA-AAT-AAT-TGA-GGC-TTA-CCG-TTA-CCG-TTA-CGG biotinylated at the 5′ end. The complementary strand has the sequence: 5′-GGT-TTA-AAA-AAT-TTG-CGG-TAA-CGG-TAA-CGG-TAA-GCC-T labeled with digoxigenin at the 5′ end. If the test product has affinity for the biotinylated DNA sequence, the pairing of the complementary strand will be prevented and the signal obtained will be minimal. In the absence of product or if the latter has no affinity for this DNA, the pairing will occur and the signal will be maximum.

The structures appear in SMILES notation.

As for `C[n+]1cc(NC(=O)c2cccc(C(=O)Nc3cc4ccccc4[n+](C)c3)n2)cc2ccccc21.[I-].[I-]` [Example 11, bis[(1-methylquinolinio-3-yl)amido]-2,6-pyridinedicarboxylic acid diiodide], the IC50 in assay [1] worked out at 50 nM. For the same molecule, the “Affinity/selectivity G4 Test 1 (alpha screen) Selectivity factor” value in assay [2] is >60.
